Measurements: PubChem BioAssay AID493208 (National Center for Advancing Translational Sciences (NCATS), 2011)
Screen size: about 44,000 compounds; about 340 (0.77%) were called active. Another 5% or so got no clear call; they are omitted. Calls come from the whole dose curve; as a rule, active = well fitted inhibition curve with a large enough effect; inconclusive = small, poorly fitted or top-dose-only effect; inactive = flat fitted curve, though single readings scatter. This is one part of the list.

Assay: Acumen qHTS Assay for Inhibitors of the mTORC1 Signaling Pathway in MEF (Tsc2-/-, p53-/-) Cells: Sytravon;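 note: plate controls were DMSO for no effect and rapamycin for full effect; nearly all actives have a fitted effect of over 50% in size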
Conditions: phospho-rpS6 immunofluorescence/PI, 24 h; series mostly up to 38.3 µM; activity change, negative = inhibition: at the top concentration
Procedure, shortened: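 Read-out: phospho-S6 Alexa-488 intensity over PI intensity per well, scored as % active cells using thresholds from rapamycin (7.5 nM) and DMSO controls. Tsc2-/-, p53-/- MEFs exposed to compound for 24 h; PI cell count recorded as viability.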

Activity change, negative = inhibition, inactive:
CCCOc1ccc(C2c3c(-c4ccccc4O)n[nH]c3C(=O)N2Cc2ccncc2)cc1OCC (stereo not given) -1.06%
Cc1cccc(NC(=O)C(=O)NCC(c2cccnc2)N2CCOCC2)c1 (stereo not given) -5.94%
COc1ccc(C)cc1NC(=O)C(=O)NCCc1csc(-c2ccc(C)cc2)n1 -3.8%
CCOC(=O)c1c(C)c(C(=O)NCCc2ccc(OC)cc2)c(C)n1C -7.25%
Cc1cccc(CNC(=O)c2cnc3sc(N4CCCCC4)nn3c2=O)c1 8.89%
CCc1nn(CC(=O)Nc2cccc(C)c2C)c(=O)c2cc3sccc3n12 0.462%
Cc1ccc(CCNC(=O)C2CCCN(Cc3nc(-c4cccc(Cl)c4)oc3C)C2)cc1 (stereo not given) 0.815%
CN(C(=O)CSc1cn(CC(=O)N2CCCCC2)c2ccccc12)c1ccccc1 -5.15%
COc1ccc(/C=C/c2nc(C#N)c(N3CCN(c4ccccc4)CC3)o2)cc1OC 1.13%
O=C(Cc1ccc(F)cc1)N1CCC(c2nc3c(nnn3Cc3ccc(Cl)cc3)c(=O)[nH]2)CC1 -17.6%
COc1ccc(-c2noc(C3CC(=O)N(c4cc(C)cc(C)c4)C3)n2)cc1 (stereo not given) -16.6%
CN1CCN(CCCNC(=O)c2cnn(-c3ccccc3)c2C2CCN(C(=O)OC(C)(C)C)CC2)CC1 -0.0346%
CCC(C)NC(=O)c1ccc2c(c1)N(Cc1ccccc1)C(=O)c1ccccc1S2(=O)=O (stereo not given) -9.68%
CCC(Oc1ccccc1)C(=O)Nc1ccccc1OCc1cc(=O)n2ccccc2n1 (stereo not given) 16.2%
CC1=C(C(=O)Nc2ccc(Cl)cc2)C(C(C)C)n2nc(SCc3cccc(C)c3)nc2N1 (stereo not given) -4.81%
Cc1c2cnn(-c3ccccc3)c(=O)c2c(C)n1CCCC(=O)Nc1ccc(F)cc1F -2.11%
CCCc1nnc(NC(=O)c2nc(S(=O)(=O)Cc3ccc(C)cc3)ncc2Cl)s1 -18%
O=C(c1ccc2c(Cl)c3c(nc2c1)CCCC3)N1CCN(c2ccccc2)CC1 -0.697%
CC(C)(C)C1CCc2onc(C(=O)Nc3sc4c(c3C(N)=O)CCCC4)c2C1 (stereo not given) 0.584%
NC(=O)c1cc(S(=O)(=O)NCC2CCC(C(=O)Nc3cccc(Cl)c3)CC2)cs1 (stereo not given) -3.13%
Cc1c(Cl)cccc1NC(=O)CCS(=O)(=O)c1ccc(Br)s1 16%
Cc1ccc(NC(=O)CSc2nc3ccccc3c3nc(CCn4c(C)nc5ccccc54)nn23)cc1F -7.57%
COCCNC(=O)c1ccc2c(c1)N(Cc1cccc(Cl)c1)C(=O)c1ccccc1S2=O (stereo not given) -11.2%
Cc1ccc(C)c(NC(=O)CCNS(=O)(=O)c2ccc3c(c2)CCCC(=O)N3)c1 7.93%
CN(C(=O)CSc1nnc2[nH]c(=O)cc(-c3ccccc3)n12)c1ccccc1 -1.65%
CCOC(=O)c1cc(-c2ccccc2)n(CC(=O)NCc2ccccc2OC)c1C -0.597%
Fc1ccc(CNc2ncnc3c2c(-c2ccccc2)cn3-c2ccccc2)cc1 -16.8%
Cn1c(=O)n(C)c2cc(S(=O)(=O)Nc3ccccc3C(=O)O)ccc21 -16.4%
O=C(Nc1ccc(F)c(F)c1)C1CCCN(S(=O)(=O)c2cccc3nonc23)C1 (stereo not given) -1.53%
Cc1ccc(C)c(N2CCN(C(=O)CN3C(=O)CSc4c3c(C)nn4-c3ccccc3)CC2)c1 -4.21%
COc1ccc(N(C)C(=O)NCc2noc3ccc(C)cc23)c(OC)c1 1.5%
CCCNC(=O)Nc1cc(C(=O)NCc2cccc(OCC)c2)ccc1N1CCCC1 1.98%
COc1ccccc1NC(=O)CSCc1cc(=O)c2c(C)cc(C)cc2[nH]1 0%
COc1ccc(C(=O)CCC(=O)Nc2ccccc2C)cc1 -3.04%
Cc1cccc(NC(=O)C2CCCN(S(=O)(=O)c3c(C)noc3/C=C/N(C)C)C2)c1C (stereo not given) 0.573%
CCC(Sc1nncn2c1cc1sccc12)C(=O)Nc1cccc(OC)c1 (stereo not given) 0%
CC(C)(C)C1CCc2nc(NC(=O)Cc3ccc(Cl)cc3)sc2C1 (stereo not given) 0.175%
Cc1ccc(CN2CCN(C3CCN(C(=O)OC(C)(C)C)CC3)C(=O)C2=O)cc1 3.04%
CC(C)(C)c1ccc(C(=O)Nc2ccccc2C(=O)OCc2cc(=O)n3ccsc3n2)cc1 8.15%
Cc1cc2nc3c(=O)n(C)c(=O)n(C)c3nc2cc1N=CN(C)C 0.163%
CCOC(=O)CC(NC(=O)Cn1nnc(-c2ccccc2C)n1)c1ccc(OC)cc1 (stereo not given) 2.08%
CCC(=O)N1CCc2cc(Br)cc(S(=O)(=O)CCC(=O)Nc3ccccc3C)c21 -2.96%
COc1ccc(-c2nc(SCC(=O)NCCCc3ccccc3)n[nH]2)cc1 9.51%
COc1ccc(NC(=O)CCc2c(C)nn(-c3ccc(N4CCOCC4)nn3)c2C)cc1Cl -13.3%
Cc1ccc2occ(CC(=O)Nc3ccc(S(N)(=O)=O)cc3)c2c1 -14.3%
CCN(CC)CCCNC(=O)c1oc2c(c1C)-c1nn(Cc3ccc(Cl)cc3)cc1CC2 3.94%
Cc1cccc(-c2noc(C3CC(=O)N(c4ccc5c(c4)OCCO5)C3)n2)c1 (stereo not given) -1.81%
Cc1ccc(N(CC(=O)NC(C)c2ccccc2)S(=O)(=O)c2c(C)noc2C)cc1 (stereo not given) -6.86%
COc1ccc(NC(=O)Cn2c(C)c3cnn(-c4ccccc4)c(=O)c3c2C)c(OC)c1 0.286%
CCc1ccc(C(=O)c2cn(CC(=O)Nc3ccc(F)cc3)c3cc4c(cc3c2=O)OCO4)cc1 -14.9%
Cc1cc(OCC(=O)Nc2sc3c(c2C(N)=O)CCCC3)ccc1C(C)C 16.2%
COc1cc(C(=O)Nc2cc3c(cc2C)n(C)c(=O)c(=O)n3C)cc(OC)c1OC -5.51%
COc1ccccc1-c1noc(-c2ccc(N3CCC(C)CC3)c([N+](=O)[O-])c2)n1 -0.468%
CCC(=O)N1CCc2cc(S(=O)(=O)NC(Cc3ccccc3)C(=O)Nc3ccc(C)cc3)ccc21 (stereo not given) -4.38%
Cc1ccc(NC(=O)c2sc3nc(-c4cc5ccccc5oc4=O)[nH]c(=O)c3c2C)c(C)c1 1.16%
O=C(CC1Sc2ccc(C(F)(F)F)cc2NC1=O)Nc1ccc(Cl)c(C(F)(F)F)c1 (stereo not given) -11.7%
CCOc1ccc(-c2cc(OC(=O)c3ccc(F)cc3)c3c(C)oc(C)c3c(=O)c2)cc1 3.13%
CCCc1cc(=O)[nH]c(Nc2cccc(Cl)c2Cl)n1 -3.08%
CCOc1ccc(-n2c(SCc3ccc(C(=O)OC)o3)nc3c([nH]c4ccccc43)c2=O)cc1 -2.48%
COc1cc(C(=O)Nc2cc(C)ccc2OCc2cc(=O)n3c(C)csc3n2)cc(OC)c1OC 14.7%
CCOC(=O)C1CCCN(S(=O)(=O)c2ccc3c(c2)CCCN3C(C)=O)C1 (stereo not given) -24.5%
COc1ccc(CCNC(=O)c2cc3c(-c4ccccc4F)nn(C)c3s2)c(OC)c1 -29.5%
O=C(Nc1ccc(Br)cc1F)c1cc(S(=O)(=O)NCc2ccc(F)cc2)ccc1F -2.2%
COc1ccc(NC(=O)c2cc3c(s2)-c2c(C)cccc2OC3)c(OC)c1 0.108%
CCCCNc1nc(Oc2ccc(=O)[nH]n2)nc(N(C)C)n1 4.08%
C=C(C)Cn1c(=O)c2c(nc3n2CCN3c2ccc(CC)cc2)n(C)c1=O 6.11%
Fc1ccc(-n2cc(-c3ccccc3)c3c(NC4CCCCC4)ncnc32)cc1 8.42%
CCOC(=O)c1cccc(NC(=O)c2cc3c(=O)n(Cc4ccccc4)ccc3nc2C)c1 -3.23%
CCc1nn(CC(=O)NCCCN(CC)CC)c(=O)c2cc3sc(C)cc3n12 -16.1%
CSc1ncc(C(=O)Nc2ccccc2C(=O)c2ccccc2)c(C(F)(F)F)n1 0%
O=C(CCC1N=C2c3ccccc3N=C(SCc3ccccc3F)N2C1=O)NC1CCCCC1 (stereo not given) -1.69%
CCOc1cc(C2C(C(=O)OC)=C(C)NC3=C2C(=O)c2ccccc23)cc(Cl)c1O (stereo not given) -15.8%
Cc1ccc(-n2ncc3c(NCCCN4CCOCC4)ncnc32)cc1 7.33%
COc1cccc(-n2c(=O)c3c(C)c(C(=O)N(C)C)sc3n(Cc3ccc(F)cc3Cl)c2=O)c1 0.566%
Fc1ccc(-c2nc(Nc3cccc(Cl)c3)nc3c2COc2ccccc2-3)cc1 4.39%
COc1ccc(NC(=O)CN(Cc2ccccc2)S(=O)(=O)c2ccc(C)cc2)cc1Cl 15.8%
CCn1c2ccccc2c2nnc(N3CCN(c4cc(C)ccc4C)CC3)nc21 -9.56%
COc1ccc(N2CCN(S(=O)(=O)c3ccc4c(c3)CC(C)N4C(C)=O)CC2)cc1 (stereo not given) -9.22%
CCOc1ccccc1NC(=O)c1cc2c(Cl)nc3ccccc3c2s1 -0.231%
COc1ccc(NC(=O)C2Cc3ccccc3N2C(=O)c2ccccc2)c(OC)c1 (stereo not given) 10.1%
CC1=C(C(=O)OC2CCCCCC2)C(c2c(F)cccc2Cl)CC(=O)N1 (stereo not given) -7.26%
Cc1ccc(Cl)cc1NC(=O)c1oc2c(c1C)-c1[nH]ncc1CC2 -12.2%
COc1ccc(N(Cc2cccs2)C(=O)COc2cccc(Cl)c2)cc1 -1.74%
CCN(CCCNC(=O)c1c(C)oc2ncn(CC(C)C)c(=O)c12)Cc1ccccc1 -8.11%
Cn1c(=O)n(-c2ccc(F)c(Cl)c2)c(=O)c2sc3ccccc3c21 1.25%
CCOC(=O)c1c(Nc2ccc(C)cc2)nnc(-c2ccccc2)c1-c1ccccc1 -0.458%
CCc1ccccc1NS(=O)(=O)c1ccc(OC)c2ncccc12 -1.94%
COc1ccc(NCc2cc3cc4c(cc3n(CC(=O)Nc3ccc(F)cc3F)c2=O)OCO4)cc1 -4.74%
CCC1CCCCN1C(=O)c1ccc2c(c1)N(Cc1cccc(Cl)c1)C(=O)c1ccccc1S2(=O)=O (stereo not given) -2.6%
COC(=O)CCSc1nc2sc3c(c2c(=O)n1Cc1ccccc1)CCC(C(C)(C)C)C3 (stereo not given) 18%
CCOC(=O)c1cnc2c(Cl)cccc2c1NCCN1CCOCC1 -0.376%
Cc1ccc(Oc2c(C(F)(F)F)oc3c(CN4CCCCC4)c(O)ccc3c2=O)cc1 1.76%
CCOc1cccc2cc(-c3nc(-c4ccccc4C)no3)c(=O)oc12 -4.1%
Cc1cc(F)ccc1NC(=O)CCS(=O)(=O)c1ccc2c(c1)NC(=O)CO2 8.39%
O=C(Nc1ccc(Cl)cc1)C1CCCN(S(=O)(=O)c2ccc3[nH]c(=O)ccc3c2)C1 (stereo not given) -2.28%
